Measurements taken from PubChem BioAssay AID504832 (National Center for Advancing Translational Sciences (NCATS), 2011).
The whole screen tested about 310,000 compounds, of which about 18,000 (5.8%) were called active. Inconclusive means that the source gave no clear call. Such entries were picked first, then a sample of the others. Calls follow the shape of the dose curve; as a rule, active = well fitted inhibition curve with a large enough effect; inconclusive = small, poorly fitted or top-dose-only effect, or another doubt; inactive = no such curve, though single readings can be large or run the other way. No potency is given beside an inconclusive call; the fits are too rough.
% is scaled to controls: 0 for no effect and ±100 for the full control effect; potency is read from the fitted curve at half-maximal effect; tags tell the direction and shape of the fitted curve.

Assay: Primary qHTS for delayed death inhibitors of the malarial parasite plastid, 48 hour incubation
Conditions: P. falciparum luciferase growth in erythrocytes; series mostly up to 28.7 µM; activity change, negative = inhibition: at the top concentration
How it was run: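 Growth was read as firefly luciferase luminescence after a 48 h, 37 C, 5% CO2 exposure of compounds to reporter-bearing P. falciparum cultures (0.1% parasitemia, 2% hematocrit final) in Albumax-supplemented RPMI 1640.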
In the case of `Cc1ccc2nc(-c3ccccn3)cc(C(=O)NCCc3ccc(F)cc3)c2c1`, the Potency is reported as inconclusive [inhibitor, single point].
With `CC(C)C[C@H](NC(=O)C1CC(=O)N(c2ccc3c(c2)OCCO3)C1)C(=O)N1CCCCC1` (stereo partly drawn) the Potency was inconclusive [inhibitor, partial curve, poor fit].
For `CC1CCCN(C(=O)NC2CC(=O)N(c3ccc4c(c3)OCCO4)C2)C1` (stereo not drawn), the Potency was inconclusive [inhibitor, single point].
In the case of `CC(Sc1nncn1C)C(=O)Nc1ccc2ccccc2c1` (stereo not drawn), the “activity change, negative = inhibition” value is reported as inactive: 26.9%.
For `NC(=O)/C(=C\c1ccncc1)c1cccc2ccccc12`, the Potency was inconclusive [inhibitor, full curve, poor fit].
In the case of `S=C(Nc1ccccc1Cl)Nc1ccc(Cl)cc1Cl`, the “activity change, negative = inhibition” value is reported as inactive: 27%.
For `CCN(CC(=O)NCc1ccc(Cl)cc1)C(=O)CCOc1ccc(C)cc1`, the “activity change, negative = inhibition” value was inactive: -22.6%.
In the case of `COc1ccc(N(C)S(=O)(=O)c2ccc(Cl)c(C(=O)NCC(C)(C)N3CCOCC3)c2)cc1`, the Potency is reported as inconclusive [inhibitor, partial curve].
In the case of `CCOc1cccc2sc(N(CCCN(C)C)C(=O)Cc3ccccc3)nc12`, the Potency is reported as inconclusive [inhibitor, single point].
For `COc1cc(CNC(=O)c2ccc3oc(C(C)C)nc3c2)cc(OC)c1`, the Potency was inconclusive [inhibitor, partial curve].
With `CCC(=O)N(C1=C(NC(C)C)C(=O)c2ccccc2C1=O)C(C)C` the Potency was active: 0.131 µM.
With `Cc1ccc(/C=c2\s/c(=C(/C#N)C(=O)N3CCCC3)n(Cc3ccco3)c2=O)s1` the Potency was inconclusive [inhibitor, single point].
With `O=C(CN1CCN(S(=O)(=O)c2cccs2)CC1)NCC1CCCCC1` the Potency was inconclusive [inhibitor, partial curve].
With `O=C(Cc1ccccc1)Nc1nc(-c2ccc(F)c(F)c2)cs1` the Potency was inconclusive [inhibitor, single point].
For `Cc1ccc(C(C)C)c(OCCNC(=O)c2ccccc2O)c1`, the Potency was inconclusive [inhibitor, full curve, poor fit].
With `CN(C)S(=O)(=O)c1ccc(N2CCCC2)c(C(=O)OCC(=O)NC2(C#N)CCCCC2)c1` the Potency was inconclusive [inhibitor, partial curve].
With `COc1cccc(C2c3[nH]c4ccccc4c3CCN2C(=O)c2ccccc2F)c1OC` (stereo not drawn) the Potency was active: 9.28 µM.
With `CCNC(=S)N1CCN(C(c2ccccc2)c2ccccc2)CC1` the Potency was active: 13.1 µM.
In the case of `CCN1C(=O)NC(c2ccccc2)C1=O` (stereo not drawn), the “activity change, negative = inhibition” value is reported as inactive: -0.367%.
For `CCOc1ccc2[nH]c(=O)c(CN(Cc3cccs3)Cc3nnnn3C(C)(C)CC)cc2c1`, the Potency was active: 8.28 µM.
In the case of `CC(=O)c1cccc(NC(=O)c2ccccc2N(C)S(=O)(=O)c2ccc(C)cc2)c1`, the Potency is reported as inconclusive [inhibitor, partial curve, poor fit].
In the case of `CCOC(=O)C1(Cc2cccc(OC)c2)CCCN(C(=O)c2cc(C)oc2C)C1` (stereo not drawn), the Potency is reported as inconclusive [inhibitor, single point].
With `CC1CN(C(=S)NC(=O)c2ccc([N+](=O)[O-])cc2)CC(C)O1` (stereo not drawn) the Potency was inconclusive [inhibitor, single point].
In the case of `O=C(Cn1cc(-c2nnnn2-c2ccc(Cl)cc2)c(=O)c2ccccc21)c1ccccc1`, the Potency is reported as active: 1.65 µM.
In the case of `CCN(CC)S(=O)(=O)c1ccc(N2CCN(C)CC2)c(NC(=O)COc2ccc(F)cc2Cl)c1`, the Potency is reported as active: 10.4 µM.
For `Cc1cccc(NC(=O)CSc2nc(=O)n(CCCN3CCOCC3)c3c2CCCC3)c1`, the Potency was inconclusive [inhibitor, single point].
For `CCN(c1ccc(OC)cc1)S(=O)(=O)c1cc(-c2cc(C)no2)ccc1C(C)C`, the Potency was inconclusive [inhibitor, partial curve].
For `NC1=NC[C@@H](Cc2ccc(O)cc2)N1CCc1cccc(F)c1`, the Potency was active: 10.4 µM.
For `CCCC(=O)OC(C(=O)Nc1cc(C(F)(F)F)ccc1Cl)c1ccccc1` (stereo not drawn), the Potency was active: 13.1 µM.
With `CC(NC(C)c1ccccc1Cl)C(=O)Nc1cccc(S(=O)(=O)N2CCCCC2)c1` (stereo not drawn) the Potency was active: 10.4 µM.
In the case of `O=S(=O)(NC1CC1)c1cccc(S(=O)(=O)N2CCCC2)c1`, the “activity change, negative = inhibition” value is reported as inactive: 33.2%.
For `CCCN1CCC(=O)N([C@H](CSc2ccc(OC)cc2)Cc2ccccc2)CC1`, the Potency was active: 10.4 µM.
In the case of `Cc1cc(=O)oc2c(C)c(OC(C)C(=O)N3CC[C@@]4(O)CCCC[C@H]4C3)ccc12` (stereo partly drawn), the Potency is reported as inconclusive [inhibitor, full curve, poor fit].
With `O=C(Cc1ccccc1)NC1c2ccccc2-c2ccccc21` the “activity change, negative = inhibition” value was inactive: 14.1%.
In the case of `COc1cc(OC)c(NC(=O)c2sc3ncn(CC(=O)N4CCN(c5ccccn5)CC4)c(=O)c3c2C)cc1Cl`, the “activity change, negative = inhibition” value is reported as inactive: -28.6%.
For `CC(=O)Nc1ccc(N(C(=O)CNC(=O)c2cccs2)C(C(=O)NC(C)(C)C)c2ccccc2)cc1` (stereo not drawn), the Potency was inconclusive [inhibitor, partial curve, poor fit].
For `O=C(/C=C/c1cccc([N+](=O)[O-])c1)NCCSc1ccccc1`, the Potency was inconclusive [inhibitor, full curve, poor fit].
For `O=C(COC(=O)c1cc(S(=O)(=O)N2CCOCC2)c(Cl)cc1Cl)NC1CC1`, the “activity change, negative = inhibition” value was inactive: 4.84%.
For `CCCC1=Nc2cc(C(=O)NCCN3CCCC3)ccc2Sc2ccccc21`, the Potency was inconclusive [inhibitor, partial curve].
For `COCCOc1cc(NC(=O)c2sccc2Oc2ccc([N+](=O)[O-])cc2F)c(Cl)cc1Cl`, the Potency was inconclusive [inhibitor, single point].
With `Cc1cc2oc3c(c(=O)c2cc1C)C(c1cccc(Br)c1)N(Cc1ccco1)C3=O` (stereo not drawn) the Potency was inconclusive [inhibitor, single point].
With `Cc1cccc(-c2sc(Nc3ccccc3)n[n+]2-c2ccc(F)cc2)c1` the “activity change, negative = inhibition” value was inactive: 15.5%.
In the case of `O=C(CSc1nnc2ccc(-c3ccccn3)nn12)Nc1ccc(F)cc1F`, the “activity change, negative = inhibition” value is reported as inactive: 9.32%.
For `CC(=O)NCCC(=O)N1CCc2c([nH]c3ccccc23)C1c1cccc(Cl)c1` (stereo not drawn), the “activity change, negative = inhibition” value was inactive: -12.1%.
In the case of `Cc1ccc(S(=O)(=O)N2CCN(C(=O)COC(=O)CCCOc3ccccc3)CC2)c(C)c1`, the Potency is reported as inconclusive [inhibitor, single point].
With `CCOC(=O)c1ccc(NC(=O)c2cc3ccccc3o2)cc1` the Potency was inconclusive [inhibitor, partial curve].
With `COc1c(OC(C)=O)ccc(/C=C/c2ccc3cccc(OCc4ccccc4)c3n2)c1[N+](=O)[O-]` the Potency was active: 1.85 µM.
With `CCOC(=O)c1[nH]c2ccccc2c1NC(=O)c1ccc(S(=O)(=O)N2CCCC2)cc1` the Potency was inconclusive [inhibitor, single point].
With `COCCn1c(=S)[nH]c2cc(C(=O)N3CCc4ccccc43)ccc2c1=O` the Potency was inconclusive [inhibitor, single point].
With `COc1ccc(N(CC(=O)NCCC2=CCCCC2)S(=O)(=O)c2ccc(C)cc2)cc1OC` the Potency was inconclusive [inhibitor, partial curve].
For `O=C(NC1CCCCCCC1)c1ccc(S(=O)(=O)N2CCCC2)cc1`, the Potency was inconclusive [inhibitor, full curve, poor fit].
With `COc1ccc(/C=C2/SC(=S)N(CCCC(=O)N3CCN(C)CC3)C2=O)cc1` the Potency was inconclusive [inhibitor, partial curve].
For `O=C(/C=C/c1ccc(O)c([N+](=O)[O-])c1)c1ccc2ccccc2c1`, the Potency was inconclusive [inhibitor, single point].
For `CCn1cc(CN2CCC(n3nccc3NC(=O)C3CCCC3)CC2)c(C)n1`, the “activity change, negative = inhibition” value was inactive: 62.7%.
In the case of `CCCNC(=O)Cn1c(=O)oc2cc(S(=O)(=O)N3CC(C)CC(C)C3)ccc21` (stereo not drawn), the Potency is reported as inconclusive [inhibitor, single point].
In the case of `O=C(OCc1nc2ccccc2s1)c1ccccc1O`, the “activity change, negative = inhibition” value is reported as inactive: 119%.
For `CCOC(=O)C1=C(N)Oc2cc(C)oc(=O)c2C12C(=O)N1c3c(cccc32)C(C)CC1(C)C` (stereo not drawn), the Potency was inconclusive [inhibitor, single point].
With `CCC(Sc1nncn1C)C(=O)Nc1cc(C)on1` (stereo not drawn) the Potency was inconclusive [inhibitor, partial curve, poor fit].
With `COc1cccc2cc(C(N)=O)oc12` the “activity change, negative = inhibition” value was inactive: 11.6%.
In the case of `CCOC(=O)C1(Cc2ccc(OC)cc2)CCN(C(=O)c2ccc3[nH]ccc3c2)CC1`, the Potency is reported as inconclusive [inhibitor, partial curve, poor fit].
With `COc1ccc(N2CCN(C(=O)c3cccnc3SCc3cccc(Br)c3)CC2)cc1` the Potency was inconclusive [inhibitor, full curve, poor fit].
For `CC(=O)Nc1nnc(-c2c(-c3ccccc3Cl)noc2C)o1`, the “activity change, negative = inhibition” value was inactive: 20.5%.
With `O=c1nc2ccc(Cl)cn2c2ccc(S(=O)(=O)N3CCOCC3)cc12` the Potency was inconclusive [inhibitor, single point].
With `Cc1cc(C(=O)CN2C(=O)NC(Cc3c[nH]c4ccccc34)C2=O)c(C)n1C` (stereo not drawn) the Potency was inconclusive [inhibitor, single point].
In the case of `COc1ccc(CCNC(=O)c2ccc(OCc3c(C)noc3C)cc2)cc1OC`, the Potency is reported as active: 9.28 µM.
In the case of `S=C(Nc1ccccc1)Nc1ccccc1-n1cccc1`, the Potency is reported as inconclusive [inhibitor, single point].
With `CCN(CC(=O)NCc1cccs1)C(=O)c1ccc([N+](=O)[O-])o1` the Potency was inconclusive [inhibitor, single point].
For `CO/N=C1\CCn2c1c(C)c1ccccc12`, the Potency was inconclusive [inhibitor, partial curve, poor fit].
